Laboratory results from PubChem BioAssay (NCATS).
Values joined by “and” are separate entries in the source; they are usually repeats but may differ in a detail not shown here. Identical values can stand only once. This list was built around the results that the source calls inconclusive (neither active nor inactive); the mix of calls is not that of the screen. A potency beside an inconclusive call is a rough fit, not a confirmed value. Some compounds were tested as several samples or in several runs, with calls that do not always agree. Active and inactive are the calls of the source. Calls follow the shape of the dose curve; as a rule, active = well fitted activation curve with a large enough effect; inconclusive = small, poorly fitted or top-dose-only effect; inactive = no such curve, though single readings can be large or run the other way.

molecular target: Cellular tumor antigen p53 (Homo sapiens) (UniProt P04637); assay: Primary qHTS for small molecule compounds that upregulate eGFP-tagged delta133p53alpha (in N-terminal) cells. (AID 2060322); details: NCI-H358 eGFP-delta133p53alpha fluorescence, 24 h; activation: stronger effect = higher value; also: nearly all actives have a fitted effect of over 75% in size;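 as to activation: series mostly up to about 56 µM; 0% = DMSO vehicle and 100% = reference activator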
Sequence of UniProt P04637 (P04637 whole entry, looked up): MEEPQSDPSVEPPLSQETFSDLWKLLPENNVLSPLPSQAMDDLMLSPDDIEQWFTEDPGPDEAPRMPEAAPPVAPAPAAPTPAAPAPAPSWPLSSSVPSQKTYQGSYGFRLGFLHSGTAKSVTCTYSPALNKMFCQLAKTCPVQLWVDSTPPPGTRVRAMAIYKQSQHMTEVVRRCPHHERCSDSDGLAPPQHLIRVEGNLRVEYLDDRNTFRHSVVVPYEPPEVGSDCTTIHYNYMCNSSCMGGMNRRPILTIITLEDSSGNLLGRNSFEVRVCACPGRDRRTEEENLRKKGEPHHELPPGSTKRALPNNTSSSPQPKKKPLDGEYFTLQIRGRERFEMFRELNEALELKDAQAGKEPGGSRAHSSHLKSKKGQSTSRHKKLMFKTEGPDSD
In short: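 NCI-H358 cells pre-induced 24 h with 10 ng/ml doxycycline to express N-terminal eGFP-delta133p53alpha, then dosed 24 h at 37C without doxycycline; fixed, Hoechst-stained, GFP intensity by laser scanning cytometry, normalized to DMSO (0%) and 57.5 uM 5-azacytidine (100%).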
Potency is read from the fitted curve at half-maximal effect; tags tell the direction and shape of the fitted curve.

SMILES	activation	Potency
C=C(C)[C@@H]1CC[C@]2(C(=O)O)CC[C@]3(C(=O)O)[C@H](CCC4[C@@]5(C)CCC(=O)C(C)(C)C5CC[C@]43C)C12 (stereo not given in full)	inactive: 33.9%	–
CCc1oc2ccccc2c1C(=O)c1cc(I)c(O)c(I)c1	–	inconclusive: 27.6 µM [activator, single point]
CO/N=C(\C(=O)N[C@@H]1C(=O)N2C(C(=O)O)=C(CSc3nc(=O)c(O)nn3C)CS[C@H]12)c1csc(N)n1	–	inconclusive: 6.17 µM [activator, partial curve, poor fit]
c1ccc(-c2ccc(C(c3ccccc3)n3ccnc3)cc2)cc1 (stereo not given)	–	inconclusive: 13.8 µM [activator, partial curve]
CCC(=O)O[C@H]1C(C)(C)[C@H]([C@@H](O)C(=O)OC)[C@]2(C)C(=O)[C@@]1(O)[C@H]1O[C@]13C1CC(=O)O[C@@H](c4ccoc4)[C@]1(C)CCC32 (stereo not given in full)	inactive: -20.6%	–
N#CC(CCCN1CCC(O)(c2ccc(Cl)cc2)CC1)(c1ccccc1)c1ccccc1	–	inconclusive: 8.49 µM [activator, partial curve, poor fit]
CCOC(=O)n1ccn(C)c1=S	–	inconclusive: 9.78 µM [activator, partial curve, poor fit]
Cc1[nH]c(C=C2C(=O)Nc3ccccc32)c(C)c1CCC(=O)O	–	active: 24.3 µM
C[C@@H]1CC[C@@]2(OC1)OC1CC3C4CC=C5CC(O)CCC5(C)C4CCC3(C)C1[C@@H]2C (stereo not given in full)	–	inconclusive: 2.43 µM [activator, full curve]
CC(C)c1cccc(C(C)C)c1NC(=O)Nc1ccc(Sc2ccc([N+](=O)[O-])cc2)cc1	–	inconclusive: 37.9 µM [activator, single point]
O=C(CS(=O)Cc1ccco1)NC/C=C\COc1cc(CN2CCCCC2)ccn1 (stereo not given)	inactive: -5.08%	–
C=C1C(=O)OC2CC3(C)C(CC12)C(C)=CC(O)C3OC(C)=O (stereo not given)	–	inconclusive: 26.2 µM [activator, single point]
C#Cc1ccc(-c2ccccc2F)cc1	–	inconclusive: 38.9 µM [activator, single point]
Cc1c(CN2CCN(C(=O)C(C)C)CC2)sc2c(N3CCOCC3)nc(-c3cnc(N)nc3)nc12	–	inconclusive: 1.09 µM [activator, full curve, poor fit]
CCC(C)(OC(C)=O)C(=O)O[C@H]1[C@H](OC(C)=O)[C@]2(CO)[C@H](O)[C@H](O)[C@]3(C)C(=CCC4[C@@]5(C)CC[C@H](O[C@@H]6O[C@H](C(=O)O)[C@@H](O)[C@H](O[C@@H]7OC[C@H](O)[C@H](O[C@@H]8OC[C@H](O)[C@H](O)[C@H]8O)[C@H]7O)[C@H]6O[C@@H]6O[C@H](CO)[C@@H](O)[C@H](O)[C@H]6O)C(C)(C)C5CC[C@]43C)[C@@H]2CC1(C)C (stereo not given in full)	–	active: 3.2 µM
C[C@H]1CC[C@@]2(OC1)O[C@H]1CC3C4CC[C@H]5C[C@@H](O)CC[C@]5(C)C4=CC(=O)[C@]3(C)[C@H]1[C@@H]2C (stereo not given in full)	–	inconclusive: 8.28 µM [activator, partial curve, poor fit]
CC(C)NC(=O)c1ccc(C=O)cc1	–	inconclusive: 17.4 µM [activator, partial curve]
CC(C)C(=O)Nc1cccc(C2CN3CCSC3=N2)c1 (stereo not given)	inactive: 6.69%	–
Cc1cc(N)c2cc(NC(=O)Nc3ccc4nc(C)cc(N)c4c3)ccc2n1	–	inconclusive: 38.9 µM [activator, single point]
Cc1ccc([N+](=O)[O-])cc1S(=O)(=O)N(C)N=Cc1cnc2ccc(Br)cn12	–	inconclusive: 0.122 µM [activator, full curve, poor fit]

SMILES	activation	Potency
O=C(O)/C=C/c1ccc(-c2ccc(O)c(C34CC5CC(CC(C5)C3)C4)c2)cc1	–	active: 26.9 µM
CN(C)C(N)=NCCC[C@H](N)C(=O)O	inactive: -10.9%	–
COCCOC(=O)C1=C(C)NC(C)=C(C(=O)OC(C)C)C1c1cccc([N+](=O)[O-])c1 (stereo not given)	–	active: 6.92 µM
COc1ccccc1C(=O)Nc1cccc(NC(=O)c2cccc(C)c2)c1	inactive: -11.7%	–
CO[C@H]1/C=C\O[C@@]2(C)Oc3c(C)c(O)c4c(O)c(c5c(nc6cc(C)ccn65)c4c3C2=O)NC(=O)C(C)=CC=C[C@H](C)[C@H](O)[C@@H](C)[C@@H](O)[C@@H](C)[C@H](OC(C)=O)[C@H]1C	–	inconclusive: 30.6 µM [activator, partial curve, poor fit]
NC(=NCCCCCCN=C(N)/N=C(\N)Nc1ccc(Cl)cc1)/N=C(\N)Nc1ccc(Cl)cc1	–	inconclusive: 24.6 µM [activator, single point] and active: 30.1 µM
CC1OC(O[C@H]2[C@@H](O)C[C@@]3(C)C([C@H](O)C[C@]4(C)C3CC=C3C5CC(C)(C)CC[C@]5(C(=O)OC5OC(CO)C(O)C(O)C5OC5OCC(OC6OCC(OC7OCC(O)C(O)C7O)C(O)C6O)C(OC6OCC(O)(CO)C6O)C5O)CC[C@]34C)[C@]2(C)CO)C(O)C(O)C1O (stereo not given in full)	inactive: -6.11%	–
CN1[C@@H]2CC[C@H]1CC(OC(c1ccccc1)c1ccccc1)C2 (stereo not given in full)	–	inconclusive: 3.01 µM [activator, partial curve, poor fit]
CC[C@]12CCCN3CCc4c(n(c5ccccc45)[C@@](O)(C(=O)OC)C1)[C@@H]32	inactive: 5.02%	–
Cc1onc(-c2c(F)cccc2Cl)c1C(=O)N[C@@H]1C(=O)N2[C@@H]1SC(C)(C)[C@@H]2C(=O)O	inactive: -1.67%	–
COc1cc(C2CC(=O)Nc3c2cc(Br)c2ccccc32)cc(OC)c1OC (stereo not given)	–	inconclusive: 37.9 µM [activator, single point]
COC[C@H](NC(=O)c1cnc(C)s1)C(=O)N[C@@H](COC)C(=O)N[C@@H](Cc1ccccc1)C(=O)[C@@]1(C)CO1	–	active: 17.2 µM
C=CC(=O)Nc1cccc(CN2C(=O)N(c3c(Cl)c(OC)cc(OC)c3Cl)Cc3cnc(NCCCCN(CC)CC)nc32)c1	–	inconclusive: 21.3 µM [activator, single point]
Cc1ccc(O)c2ncccc12	–	inconclusive: 30.9 µM [activator, single point]
O=C(O)CCN(O)C(=O)CCCCCCCCC1CC1	inconclusive: -4.47% [activator]	–
CC(C)=CCCC1(C)C2CCC1(C)C(O)C2 (stereo not given)	–	inconclusive: 37.9 µM [activator, single point]
COc1cc2ncnc(Nc3ccc(F)c(Cl)c3)c2cc1OCCCN1CCOCC1	–	inconclusive: 11 µM [activator, partial curve, poor fit] and inconclusive: 33.8 µM [activator, single point]
CCOC(=O)c1ccc(NC(=O)CN2CCCCC2)cc1	–	inconclusive: 38.9 µM [activator, single point]
c1cc(Nc2cc(C3CC3)[nH]n2)nc(Nc2ccc3nc[nH]c3c2)n1	–	active: 0.849 µM
C=CCC/C=C/C#CCCCCCCCC[C@H]1C(=O)O[C@H](C)[C@@H]1O	inactive: 8.4%	–
